Measurements taken from PubChem BioAssay AID1346428 (National Center for Advancing Translational Sciences (NCATS), 2018).
Among all 48,000 compounds or so, about 1,200 (2.5%) were called active. Another 2% or so got no clear call; they are omitted.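 How the source made its calls: active means activation of at least 60% and not above a set upper limit (about 1 call in 100 departs from these limits); inconclusive means activation of 40% to 60%, or above that upper limit; inactive means activation under 40%.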 Some of the results follow.

Target: Probable G-protein coupled receptor 32 (Homo sapiens) (UniProt O75388)
Sequence of UniProt O75388 (O75388 whole entry, looked up): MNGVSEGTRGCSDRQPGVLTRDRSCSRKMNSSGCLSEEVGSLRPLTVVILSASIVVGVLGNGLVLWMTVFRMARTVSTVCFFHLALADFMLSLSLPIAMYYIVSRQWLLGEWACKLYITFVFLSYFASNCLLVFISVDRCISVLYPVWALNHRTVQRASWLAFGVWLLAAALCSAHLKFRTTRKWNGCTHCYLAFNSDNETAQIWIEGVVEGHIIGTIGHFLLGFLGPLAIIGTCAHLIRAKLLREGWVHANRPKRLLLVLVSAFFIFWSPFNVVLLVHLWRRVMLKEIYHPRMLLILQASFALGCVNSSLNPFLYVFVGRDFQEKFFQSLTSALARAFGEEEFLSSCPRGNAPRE
Test: qHTS for Agonists of Human Resolvin D1 Receptor DRV1
Settings: CHO-K1 GPR32 beta-arrestin PathHunter luminescence, 90 min; at 76.9 µM; hits give high values; zero percent set by DMSO-only wells
Outline: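 Beta-arrestin recruitment read-out: luminescence from complemented beta-Gal in CHO-K1 GPR32 PathHunter cells, measured 1 h after detection reagent at ambient temperature following 90 min compound exposure at 37 °C; DMSO served as basal (EC0) control.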

activation, inactive:
COc1ccccc1CNc1nccn(-c2ccccc2)c1=O 16.8%, CCCCC1CCC(C(=O)N2CC(=O)Nc3ccc(Cl)cc3C2c2ccc(F)cc2)CC1 (stereo not drawn) -18.6%, CCN(CC)c1ccc(-c2nc(-c3ccco3)no2)cc1[N+](=O)[O-] -10.4%, CCC(C)NC(=O)c1sc2nc(C)c(C(=O)Nc3ccc(C)cc3C)c(-c3ccccc3Cl)c2c1N (stereo not drawn) -12.1%, COc1ccc(NC(=O)c2cnc(N3CCCCC3)c3ccccc23)cc1Cl -15.2%, Cc1ccc(CCNC(=O)c2ccc3c(=O)n(-c4ccccc4)c(=O)[nH]c3c2)cc1 -2.55%, Cn1cc(S(=O)(=O)N2CCCCC2)cc1C(=O)Nc1cccc(C#N)c1 1.35%, CCOC(=O)c1cccc2c1N[C@@H](c1ccc(F)cc1)[C@H]1CC=C[C@@H]21 -32.4%, Cc1ccc(CNC(=O)Cn2c(=O)n(Cc3ccc(F)cc3)c(=O)c3sc4ccccc4c32)cc1 -1.64%, O=C(CCCCC(=O)Nc1c(I)cc(I)c(C(=O)O)c1I)Nc1c(I)cc(I)c(C(=O)O)c1I -2.49%, O=C(Nc1ccc(Cl)cc1)N1CCC(c2ccccc2)C1 (stereo not drawn) 2.09%, Cc1cc(-c2ccc(S(=O)(=O)Nc3ccc(Cl)cc3C)cc2)on1 5.68%, COc1cccc(N2CC(NC(=O)/C=C\c3ccc(OC)c(OC)c3)CC2=O)c1 (stereo not drawn) 3.42%, CCOc1ccccc1NC(=O)c1c(NCc2sccc2C)sc2c1CCC(C)C2 (stereo not drawn) -17.6%, CCC(C)NC(=O)CN1C(=O)COc2ccc(S(=O)(=O)N3CCOCC3)cc21 (stereo not drawn) 0.0422%, CCCN(C(=O)Cn1ncc2c([nH]c3ccc(C)cc32)c1=O)c1ccccc1C 1.53%, Cc1nc2scc(C)n2c(=O)c1S(=O)(=O)Nc1cccc(C(F)(F)F)c1 49.4%, CCOc1ccc(-n2nc3ccc(NC(=O)c4ccc(-c5cccc(Cl)c5)o4)cc3n2)cc1 -4.86%, CN1CCc2nc3sc(C(=O)Nc4ccccc4C(F)(F)F)c(N)c3cc2C1 -25.4%, COc1ccccc1Cc1nc2ccccc2nc1SCC(=O)NCc1ccccc1Cl -11.2%, CC1=C(C(=O)OC2CCCCCC2)C(c2cccc(Cl)c2)CC(=O)N1 (stereo not drawn) 42.6%, CCCC1=Nc2cc(C(=O)N3CCC(C)CC3)ccc2Sc2ccc(C)cc21 1.18%, Cc1ccc2c(=O)c(C(=O)c3cccc(Cl)c3)cn(CC(=O)Nc3ccccc3C(F)(F)F)c2n1 -10.7%
